# Test results published in publication PMC4336329 (PLoS ONE, 2015).
# Out of some 310,000 compounds screened, about 2,200 (0.71%) showed an effect of 50% or more. Effects have a minus sign here. Some of the results follow.
# Molecular target: human ether-à-go-go-related gene (hERG) potassium channel (human, UniProt Q12809)
# Assay: primary screen, population patch clamp on CHO cells stably expressing hERG
# Chain of human ether-à-go-go-related gene (hERG) potassium channel (Q12809 whole entry, looked up): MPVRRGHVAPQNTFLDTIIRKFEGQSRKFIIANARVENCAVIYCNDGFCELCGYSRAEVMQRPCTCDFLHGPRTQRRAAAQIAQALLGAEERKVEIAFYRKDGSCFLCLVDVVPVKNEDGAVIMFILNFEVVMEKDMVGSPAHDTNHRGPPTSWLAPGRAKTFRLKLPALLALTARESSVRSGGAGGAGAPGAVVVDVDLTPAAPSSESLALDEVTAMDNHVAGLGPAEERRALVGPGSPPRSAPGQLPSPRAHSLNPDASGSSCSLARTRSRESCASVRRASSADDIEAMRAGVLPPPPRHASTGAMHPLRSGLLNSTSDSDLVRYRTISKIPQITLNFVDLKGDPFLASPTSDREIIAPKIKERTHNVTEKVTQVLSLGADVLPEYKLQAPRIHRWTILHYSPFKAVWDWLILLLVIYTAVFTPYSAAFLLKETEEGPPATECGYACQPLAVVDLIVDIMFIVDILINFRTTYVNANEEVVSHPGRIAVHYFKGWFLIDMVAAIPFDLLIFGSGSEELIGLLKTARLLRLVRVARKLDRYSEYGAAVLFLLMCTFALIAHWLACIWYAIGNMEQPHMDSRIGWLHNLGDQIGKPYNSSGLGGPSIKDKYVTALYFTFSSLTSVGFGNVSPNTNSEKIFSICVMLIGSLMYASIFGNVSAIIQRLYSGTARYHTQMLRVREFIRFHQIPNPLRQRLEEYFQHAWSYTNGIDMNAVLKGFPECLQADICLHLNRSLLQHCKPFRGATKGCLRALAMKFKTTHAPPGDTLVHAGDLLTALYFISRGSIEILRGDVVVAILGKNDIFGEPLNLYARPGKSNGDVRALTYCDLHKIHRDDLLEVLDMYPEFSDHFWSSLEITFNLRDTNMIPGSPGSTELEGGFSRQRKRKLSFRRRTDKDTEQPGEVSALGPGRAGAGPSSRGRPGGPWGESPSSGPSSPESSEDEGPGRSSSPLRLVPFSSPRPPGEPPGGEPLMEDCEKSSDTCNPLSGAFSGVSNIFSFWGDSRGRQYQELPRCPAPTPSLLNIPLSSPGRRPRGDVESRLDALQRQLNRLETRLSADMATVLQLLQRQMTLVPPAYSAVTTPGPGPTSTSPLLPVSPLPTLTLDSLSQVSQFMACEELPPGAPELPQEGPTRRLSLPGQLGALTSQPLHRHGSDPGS
row,SMILES,"hERG current change (%, negative = inhibition) at 1uM"
1,Cc1ccc(CN2C(=O)CCC2C(=O)NCCN(CC(C)C)CC(C)C)cc1 (stereo not shown),7.6%
2,CC(C)CC(=O)NC(Oc1ccc(Cl)cc1)C(Cl)(Cl)Cl (stereo not shown),10.1%
3,C/C(=N\NC(=O)c1c(Br)c(C)nn1C)c1cccc(NC(=O)C2CCC2)c1,-1.39%
4,O=C(Nc1ccc(Cl)c(Cl)c1)Nc1ccccc1O,9.91%
5,CCN(CC)C(=O)CN1C(=O)C(=O)c2ccccc21,19.7%
6,CC1(C)Cc2c(sc(NC(=O)C(=O)NCCCN3CCOCC3)c2C(N)=O)CO1,8.43%
7,O=C(c1ccccc1)c1nccn1-c1ccc(Cl)nn1,11.4%
8,CC1=C/C(=C/N(C)C)C(=O)O1,15%
9,CCn1c(=O)cc(SCC(=O)NCc2cccnc2)c2ccccc21,13.3%
10,COc1cc(C)c(COc2ncnc3ccccc23)cc1OC,3.66%
11,O=C1[C@@H]2C(c3cccnc3)=NO[C@@H]2C(=O)N1c1ccc(Cl)cc1Cl,11.2%
12,CCOC(=O)CC1C(=O)NCCN1C(=O)c1cc2c(=O)n3cccc(C)c3nc2s1 (stereo not shown),13.2%
13,CC(C)C(=O)Nc1nc2cc3c(cc2s1)OCCO3,7.01%
14,O=C(/C=C/c1ccc2c(c1)OCCO2)c1ccc(O)cc1,4.76%
15,Cc1cccc(NC(=O)c2nc[nH]c2C(=O)Nc2cccc(C)c2)c1,15.9%
16,CCNc1nnc(-c2ccncc2)s1,11.1%
17,COC(=O)c1ccc(C(=O)OC)c(NC(=O)COC(=O)CCOc2ccc(C)cc2)c1,13.2%
18,COc1cccc(CNC(=O)C(C)n2nc(C)n3c(cc4occc43)c2=O)c1 (stereo not shown),4.31%
19,Cl.Cn1nnc(C(O)CNCc2ccc(Cl)cc2)n1 (stereo not shown),8.91%
20,CC1CC(C)CN(C(=O)CSc2nc(N)cc(=O)[nH]2)C1 (stereo not shown),-1.76%
21,Cc1ccc(-c2nnc(OCc3cccnc3)c3ccccc23)cc1,-7.6%
22,CC1CN(S(=O)(=O)c2ccc(NC(=O)CCCN3C(=O)c4ccccc4C3=O)cc2)CC(C)O1 (stereo not shown),-0.596%

row,SMILES,"hERG current change (%, negative = inhibition) at 1uM"
1,CCc1ccc(NC(=O)N(C2CCCCC2)C(C)c2cccnc2)cc1 (stereo not shown),-0.814%
2,O=C(NCCC1CCCCN1S(=O)(=O)c1ccccc1)C(=O)Nc1ccc(F)cc1F (stereo not shown),7.89%
3,CCN(CC)CCNC(C(=O)Nc1ccc([N+](=O)[O-])cc1Br)c1ccccc1 (stereo not shown),-86.5%
4,CCc1ccc(NC(=O)CNS(=O)(=O)c2c(C)noc2C)cc1,10.6%
5,Cc1c(OCC(=O)OC(C)(C)C)ccc2c3c(c(=O)oc12)CCC3,14.4%
6,COc1ccc(-c2cn3c(C)c(C(=O)N4CCN(c5ccc(F)cc5)CC4)sc3n2)cc1,3.41%
7,CCCC1c2ccc(C)n2CCN1C(=O)Nc1ccc(F)cc1 (stereo not shown),8.71%
8,COc1ccc(OC)c2c1C(=O)C(Cl)=C(Cl)C2=O,12.7%
9,Cc1cc(C)c(C)c(S(=O)(=O)N2C(=S)NC(=O)C2C(C)C)c1C (stereo not shown),5.33%
10,CC1(C)CC(N2CCC(=O)N(C3CC(C)(C)NC(C)(C)C3)C2)CC(C)(C)N1,-8.68%
11,CCN(C(=O)c1cc2c(=O)n3cccc(C)c3nc2n1CCCOC)C1CCCCC1,4.12%
12,Cc1nn(-c2ccccc2)nc1C(=O)c1c(C)[nH]n(-c2ccccc2)c1=O,3.21%
13,O=C(N/N=C/c1ccc(OC(=O)c2ccccc2Cl)cc1)c1cc(O)cc(O)c1,-16.1%
14,CC(=O)N1CCN(S(=O)(=O)c2ccc3c(c2)OCCO3)CC1,10.3%
15,Cc1nc2ccccn2c1C(=O)NNS(=O)(=O)c1ccc(C(C)(C)C)cc1,10.9%
16,C#CCOc1c(Cl)cc(C2C3=C(CCCC3=O)N(CC(=O)O)C3=C2C(=O)CCC3)cc1OC,1.11%
17,CCOC(=O)c1ccc(NC(=O)c2ccc(NC(=O)c3ccccc3)cc2)cc1,7.31%
18,CCC(CC)=NNc1ccc([N+](=O)[O-])cc1[N+](=O)[O-],9.64%
19,COc1cccc(C(=O)C2CCCN(C(=O)c3ccc(C#CC(C)(C)O)cc3)C2)c1 (stereo not shown),6.92%
20,CN(c1ccccc1C(=O)N1CCOCC1)S(C)(=O)=O,12.9%
21,CC(=O)Nc1ccc(C(=O)CSc2nc3ccccc3n2CC(=O)N2CCCC2)cc1,5.57%
22,NC(=O)c1ccccc1NC(=O)c1ccccc1S(=O)(=O)c1ccccc1[N+](=O)[O-],11%

row,SMILES,"hERG current change (%, negative = inhibition) at 1uM"
1,c1nc(N2CCCCC2)c2[nH]cnc2n1,8.35%
2,CCc1ccc2oc(=O)cc(CN3CCN(Cc4ccccc4)CC3)c2c1,-17.6%
3,CCCCCc1ccc(C2=NNC(=O)CC2)cc1,13.7%
4,CC(=O)c1sc(NC(C)c2ccccc2)nc1C (stereo not shown),23.1%
5,CC(C)C1NCCc2c1sc1ccccc21 (stereo not shown),7.83%
6,Cc1c(C(=O)N(C)C2CC(C)(C)NC(C)(C)C2)oc2c(F)cccc12,7.59%
7,Cc1ccc(S(=O)(=O)NC(C)C(=O)Nc2ccc3c(c2)OCO3)cc1 (stereo not shown),16.5%
8,CCOc1cc(N2CCOCC2)c(OCC)cc1NC(=O)c1nc2nc(C)cc(C)n2n1,15.5%
9,CSCCC(NS(=O)(=O)/C=C/c1ccccc1)C(=O)NCCc1ccc(S(N)(=O)=O)cc1 (stereo not shown),2.03%
10,CC1=NNC(=O)/C1=C\c1cn(-c2ccccc2)nc1-c1cccs1,9.8%
11,COc1cccc(NC(=O)COC(=O)CCCc2c[nH]c3ccccc23)c1,8.32%
12,COC(=O)c1ccc(C(c2c(C)[nH][nH]c2=O)c2c(C)[nH][nH]c2=O)cc1,14.5%
13,Cc1ccc(NC(=O)CC2C(=O)NCCN2C(=O)c2ccc(F)cc2)cc1 (stereo not shown),-11.8%
14,Cc1ccc(-c2nc(C(Cl)Cl)c3ccccc3n2)cc1,0.646%
15,Clc1ccccc1-c1nnc(-c2ccccc2Cl)o1,4.59%
16,Cc1oc(-c2ccc(Cl)cc2)cc1C(=O)O,17.6%
17,CS(=O)(=O)N(CC(=O)N1CCc2ccccc2C1)c1cccc(F)c1,-2.4%
18,COc1ccc(C)cc1NC(=S)NC12CN3CN(CN(C3)C1)C2,16%
19,N=C1/C(=C/c2cccn2Cc2ccc(Cl)cc2)C(=O)N=C2SC=CN12,6.96%
20,O=c1nc(NCc2ccccc2Cl)cn[nH]1,1.65%
21,O=C(Cn1ncc2c([nH]c3ccccc32)c1=O)NCC1CCN(Cc2ccccc2F)CC1,-18.2%
22,COc1ccc(/C=N/N=C2/NC(=O)C(CC(=O)O)S2)cc1OCc1ccccc1Cl (stereo not shown),6.29%

row,SMILES,"hERG current change (%, negative = inhibition) at 1uM"
1,C/C(=N\OC(=O)c1ccc(Br)cc1)c1ccccn1,4.65%
2,CCOC(=O)N1CCC(NC(=O)CCc2c(C)nc3ncnn3c2C)CC1,6.8%
3,Cc1nn(CC(=O)N2CCC(C(N)=O)CC2)c(=O)c2nn(-c3ccccc3)c(C)c12,17%
4,Cc1ccc(C(=O)N2CC(=O)Nc3ccc(F)cc3C2c2ccc(F)cc2)cc1[N+](=O)[O-] (stereo not shown),6.15%
5,CC(C)(C)OC(=O)[C@H](Cc1ccccc1)NC(=O)c1[nH]cnc1C(=O)N[C@@H](Cc1ccccc1)C(=O)OCc1ccccc1,1.61%
6,COc1ccc(NC(=O)CN(c2c(C)cccc2C)S(C)(=O)=O)cc1,-10.9%
7,O=C(O)C1CSC(c2ccccc2Cl)N1C(=O)c1ccc(Cl)cc1 (stereo not shown),14.9%
8,O=C(Nc1ccccc1)c1ccc(Br)o1,11.4%
9,CS(=O)(=O)N1CCN(C(=O)c2ccc3c(c2)OCCO3)CC1,19.2%
10,O=C(CN(c1ccc2c(c1)OCCO2)S(=O)(=O)c1ccccc1)NCc1ccco1,11.5%
11,O=C(c1cc2ccccc2oc1=O)N(Cc1ccccc1)CC1CCCO1 (stereo not shown),6.58%
12,COc1ccc(NC(C)=O)cc1S(=O)(=O)NC(C)c1ccc(-n2ccnc2)cc1 (stereo not shown),1.36%
13,COc1ccc(NC(=O)CC2S/C(=N\c3nccs3)N(C)C2=O)cc1 (stereo not shown),14.9%
14,COc1ccc(CSc2nnc(SCc3ccc([N+](=O)[O-])cc3)s2)cc1,10.1%
15,Cc1ccc(OC(=O)C(C)c2cccc(C(=O)c3ccccc3)c2)cc1 (stereo not shown),14.5%
16,COc1cc(NC(=O)Cn2cnc(S(=O)(=O)N3CCC(C)CC3)c2)cc(OC)c1OC,15%
17,Cc1nn(-c2ccccc2)c(Cl)c1C1C(C#N)=C(N)OC2=C1C(=O)CC(C)(C)C2 (stereo not shown),5.11%
18,O=C1CC(c2ccccc2)c2cccc(F)c21 (stereo not shown),9.86%
19,Cc1cc(C)c(C(=O)N2CCCC(C(=O)c3cc(F)ccc3F)C2)o1 (stereo not shown),12.2%
20,CCOc1ccc(S(=O)(=O)N2CCC(C(=O)N3CCOCC3)CC2)cc1C,13.2%
21,CC(C)(C)NC(=O)/C(=C/c1cccnc1)NC(=O)c1ccco1,-0.552%
22,COC(=O)c1ccccc1NC(=O)NCc1ccco1,17.5%
